Results published in the supplement of paper PMC8728848.
The list shows a part of the results.

Key:
Assay in all cases: glycan array binding signal (z-score within array); higher = stronger binding
Details in all cases: glycan notation: IUPAC condensed, linker removed
[1] = target: Neu5Ac(a2-6)Gal(b1-4)GlcNAc(b1-2)Man(a1-3)[Neu5Ac(a2-3)Gal(b1-4)GlcNAc(b1-2)Man(a1-6)]Man(b1-4)GlcNAc(b1-4)GlcNAc
Summary of the method: (§1)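 Glycan array data were curated from 3228 arrays in the Consortium for Functional Glycomics database and kept only where the protein sequence was available. Glycan names were converted to IUPAC-condensed notation, and columns mapping to the same glycan were averaged. The binding signal is a within-array Z-score, averaged across arrays of the same protein sequence at different concentrations or buffers and across linkers. Negative Z-scores can be read as non-binding.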

[2] = target: Neu5Ac(a2-6)Gal(b1-4)GlcNAc(b1-2)Man(a1-3)[Neu5Ac(a2-6)Gal(b1-4)GlcNAc(b1-2)Man(a1-6)]Man(b1-4)GlcNAc(b1-4)GlcNAc
Summary of the method: as §1

[3] = target: Neu5Ac(a2-6)Gal(b1-4)GlcNAc(b1-2)Man(a1-3)[Neu5Ac(a2-6)Gal(b1-4)GlcNAc(b1-2)Man(a1-6)]Man(b1-4)GlcNAc(b1-4)[Fuc(a1-6)]GlcNAc
Summary of the method: as §1

[4] = target: Neu5Ac(a2-6)Gal(b1-4)GlcNAc(b1-2)Man(a1-6)Man(b1-4)GlcNAc(b1-4)GlcNAc
Summary of the method: as §1

[5] = target: Neu5Ac(a2-6)Gal(b1-4)GlcNAc(b1-2)Man(a1-6)[Gal(b1-4)GlcNAc(b1-2)Man(a1-3)]Man(b1-4)GlcNAc(b1-4)GlcNAc
Summary of the method: as §1

[6] = target: Neu5Ac(a2-6)Gal(b1-4)GlcNAc(b1-2)Man(a1-6)[GlcNAc(b1-2)Man(a1-3)]Man(b1-4)GlcNAc(b1-4)GlcNAc
Summary of the method: as §1

[7] = target: Neu5Ac(a2-6)Gal(b1-4)GlcNAc(b1-2)Man(a1-6)[Man(a1-3)]Man(b1-4)GlcNAc(b1-4)GlcNAc
Summary of the method: as §1

[8] = target: Neu5Ac(a2-6)Gal(b1-4)GlcNAc(b1-2)[Neu5Ac(a2-6)Gal(b1-4)GlcNAc(b1-4)]Man(a1-3)[GlcNAc(b1-4)][Neu5Ac(a2-6)Gal(b1-4)GlcNAc(b1-2)[Neu5Ac(a2-6)Gal(b1-4)GlcNAc(b1-6)]Man(a1-6)]Man(b1-4)GlcNAc(b1-4)GlcNAc
Summary of the method: as §1

[9] = target: Neu5Ac(a2-6)Gal(b1-4)GlcNAc(b1-2)[Neu5Ac(a2-6)Gal(b1-4)GlcNAc(b1-4)]Man(a1-3)[GlcNAc(b1-4)][Neu5Ac(a2-6)Gal(b1-4)GlcNAc(b1-4)Man(a1-6)]Man(b1-4)GlcNAc(b1-4)GlcNAc
Summary of the method: as §1

[10] = target: Neu5Ac(a2-6)Gal(b1-4)GlcNAc(b1-2)[Neu5Ac(a2-6)Gal(b1-4)GlcNAc(b1-6)]Man(a1-6)[Neu5Ac(a2-6)Gal(b1-4)GlcNAc(b1-2)Man(a1-3)][GlcNAc(b1-4)]Man(b1-4)GlcNAc(b1-4)GlcNAc
Summary of the method: as §1

[11] = target: Neu5Ac(a2-6)Gal(b1-4)GlcNAc(b1-3)Gal(b1-3)GlcNAc
Summary of the method: as §1

[12] = target: Neu5Ac(a2-6)Gal(b1-4)GlcNAc(b1-3)Gal(b1-4)GlcNAc
Summary of the method: as §1

[13] = target: Neu5Ac(a2-6)Gal(b1-4)GlcNAc(b1-3)Gal(b1-4)GlcNAc(b1-2)Man(a1-3)[Neu5Ac(a2-6)Gal(b1-4)GlcNAc(b1-3)Gal(b1-4)GlcNAc(b1-2)Man(a1-6)]GalNAc
Summary of the method: as §1

[14] = target: Neu5Ac(a2-6)Gal(b1-4)GlcNAc(b1-3)Gal(b1-4)GlcNAc(b1-3)Gal(b1-4)GlcNAc
Summary of the method: as §1

[15] = target: Neu5Ac(a2-6)Gal(b1-4)GlcNAc(b1-3)Gal(b1-4)GlcNAc(b1-3)Gal(b1-4)GlcNAc(b1-2)Man(a1-3)[Neu5Ac(a2-6)Gal(b1-4)GlcNAc(b1-3)Gal(b1-4)GlcNAc(b1-3)Gal(b1-4)GlcNAc(b1-2)Man(a1-6)]GalNAc
Summary of the method: as §1

[16] = target: Neu5Ac(a2-6)Gal(b1-4)GlcNAc(b1-3)Gal(b1-4)GlcNAc(b1-3)GalNAc
Summary of the method: as §1

[17] = target: Neu5Ac(a2-6)Gal(b1-4)GlcNAc(b1-3)Gal(b1-4)GlcNAc(b1-3)[Neu5Ac(a2-6)Gal(b1-4)GlcNAc(b1-3)Gal(b1-4)GlcNAc(b1-6)]GalNAc
Summary of the method: as §1

[18] = target: Neu5Ac(a2-6)Gal(b1-4)GlcNAc(b1-3)Gal(b1-4)GlcNAc(b1-6)[Gal(b1-3)]GalNAc
Summary of the method: as §1

[19] = target: Neu5Ac(a2-6)Gal(b1-4)GlcNAc(b1-3)Gal(b1-4)[Fuc(a1-3)]GlcNAc(b1-3)Gal(b1-4)[Fuc(a1-3)]GlcNAc
Summary of the method: as §1

[20] = target: Neu5Ac(a2-6)Gal(b1-4)GlcNAc(b1-3)GalNAc
Summary of the method: as §1

[21] = target: Neu5Ac(a2-6)Gal(b1-4)GlcNAc(b1-3)[Neu5Ac(a2-6)Gal(b1-4)GlcNAc(b1-6)]GalNAc
Summary of the method: as §1

[22] = target: Neu5Ac(a2-6)Gal(b1-4)GlcNAc(b1-6)GalNAc
Summary of the method: as §1

[23] = target: Neu5Ac(a2-6)Gal(b1-4)GlcNAc(b1-6)[Gal(b1-3)GlcNAc(b1-3)]Gal(b1-4)Glc
Summary of the method: as §1

[24] = target: Neu5Ac(a2-6)Gal(b1-4)GlcNAc(b1-6)[Gal(b1-3)]GalNAc
Summary of the method: as §1

[25] = target: Neu5Ac(a2-6)Gal(b1-4)GlcNAc6S
Summary of the method: as §1

[26] = target: Neu5Ac(a2-6)GalNAc
Summary of the method: as §1

[27] = target: Neu5Ac(a2-6)GalNAc(b1-4)GlcNAc
Summary of the method: as §1

[28] = target: Neu5Ac(a2-6)GalNAc(b1-4)GlcNAc6S
Summary of the method: as §1

[29] = target: Neu5Ac(a2-6)GlcNAc(b1-4)GlcNAc
Summary of the method: as §1

[30] = target: Neu5Ac(a2-6)GlcNAc(b1-4)GlcNAc(b1-4)GlcNAc
Summary of the method: as §1

B1: LecB PA14 (Pseudomonas aeruginosa) (protein)
chain: MATQGVFTLPANTQFGVTAFANSAGTQTVNVQVNNETVATFTGQSTNNAIIGSKVLNSGGGGKVQILVSVNGRSSDLVSAQVILANELNFALVGSEDSTDNDYNDAVVVINWPLG
[1]
  glycan array binding signal (z-score): -0.741
[2]
  glycan array binding signal (z-score): -0.058
[3]
  glycan array binding signal (z-score): 0.382
[4]
  glycan array binding signal (z-score): -0.246
[5]
  glycan array binding signal (z-score): -0.666
[6]
  glycan array binding signal (z-score): 0.251
[7]
  glycan array binding signal (z-score): -0.268
[8]
  glycan array binding signal (z-score): 0.347
[9]
  glycan array binding signal (z-score): 0.321
[10]
  glycan array binding signal (z-score): -0.414
[11]
  glycan array binding signal (z-score): -0.465
[12]
  glycan array binding signal (z-score): -0.861
[13]
  glycan array binding signal (z-score): -0.772
[14]
  glycan array binding signal (z-score): -0.744
[15]
  glycan array binding signal (z-score): 1.06
[16]
  glycan array binding signal (z-score): -0.543
[17]
  glycan array binding signal (z-score): -0.64
[18]
  glycan array binding signal (z-score): -0.255
[19]
  glycan array binding signal (z-score): 1.38
[20]
  glycan array binding signal (z-score): -0.278
[21]
  glycan array binding signal (z-score): -0.594
[22]
  glycan array binding signal (z-score): -0.193
[23]
  glycan array binding signal (z-score): -0.503
[24]
  glycan array binding signal (z-score): 0.002
[25]
  glycan array binding signal (z-score): -0.614
[26]
  glycan array binding signal (z-score): -0.019
[27]
  glycan array binding signal (z-score): -0.082
[28]
  glycan array binding signal (z-score): 0.024
[29]
  glycan array binding signal (z-score): -0.109
[30]
  glycan array binding signal (z-score): -0.669
